Experimental data as given in patent publication US20250019435A1.
Where a chain is given by its changes, count along the chain named. These are yes or no findings as the source states them, for the method shown. Some results given as binding are weak or reduced against the parent protein; the word gives no strength. Blank lines part the entries; values can stand above or below the binder they belong to.

Chains of the proteins cited; added tags and fusions are not shown. Lines headed by an entry give the natural chain unless they say otherwise; changes in a name come on top. Residues count along the entry.
UniProt Q99706, residues 22-377: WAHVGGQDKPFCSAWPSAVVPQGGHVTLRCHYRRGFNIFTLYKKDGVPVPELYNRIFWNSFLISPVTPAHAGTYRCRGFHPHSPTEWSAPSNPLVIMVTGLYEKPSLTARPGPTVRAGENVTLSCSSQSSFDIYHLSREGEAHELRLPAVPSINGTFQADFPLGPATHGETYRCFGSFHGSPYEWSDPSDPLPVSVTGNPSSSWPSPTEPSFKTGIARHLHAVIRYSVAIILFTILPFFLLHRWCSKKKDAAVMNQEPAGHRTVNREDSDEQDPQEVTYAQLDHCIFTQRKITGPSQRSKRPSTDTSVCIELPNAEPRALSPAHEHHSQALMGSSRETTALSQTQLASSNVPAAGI
UniProt Q8N743, residues 26-410: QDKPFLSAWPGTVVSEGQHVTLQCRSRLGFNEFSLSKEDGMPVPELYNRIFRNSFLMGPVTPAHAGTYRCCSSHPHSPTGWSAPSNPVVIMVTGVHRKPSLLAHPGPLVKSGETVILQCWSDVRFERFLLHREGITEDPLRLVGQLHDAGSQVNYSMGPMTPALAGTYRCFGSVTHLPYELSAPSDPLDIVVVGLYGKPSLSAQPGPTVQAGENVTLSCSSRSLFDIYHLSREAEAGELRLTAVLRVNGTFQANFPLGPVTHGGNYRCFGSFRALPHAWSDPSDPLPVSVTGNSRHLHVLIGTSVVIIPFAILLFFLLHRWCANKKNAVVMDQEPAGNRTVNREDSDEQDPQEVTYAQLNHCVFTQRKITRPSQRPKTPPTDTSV
UniProt Q8N109: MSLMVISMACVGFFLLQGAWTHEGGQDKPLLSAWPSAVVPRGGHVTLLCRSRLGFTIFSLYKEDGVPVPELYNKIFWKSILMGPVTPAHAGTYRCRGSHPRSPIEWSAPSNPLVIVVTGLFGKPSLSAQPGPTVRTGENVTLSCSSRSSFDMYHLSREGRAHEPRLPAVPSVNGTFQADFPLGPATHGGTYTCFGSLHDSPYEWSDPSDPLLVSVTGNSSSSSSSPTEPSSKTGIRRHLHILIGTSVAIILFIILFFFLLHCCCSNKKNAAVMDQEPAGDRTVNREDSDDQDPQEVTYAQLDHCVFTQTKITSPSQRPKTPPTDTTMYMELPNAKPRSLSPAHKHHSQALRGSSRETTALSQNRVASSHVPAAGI
UniProt Q8NHK3: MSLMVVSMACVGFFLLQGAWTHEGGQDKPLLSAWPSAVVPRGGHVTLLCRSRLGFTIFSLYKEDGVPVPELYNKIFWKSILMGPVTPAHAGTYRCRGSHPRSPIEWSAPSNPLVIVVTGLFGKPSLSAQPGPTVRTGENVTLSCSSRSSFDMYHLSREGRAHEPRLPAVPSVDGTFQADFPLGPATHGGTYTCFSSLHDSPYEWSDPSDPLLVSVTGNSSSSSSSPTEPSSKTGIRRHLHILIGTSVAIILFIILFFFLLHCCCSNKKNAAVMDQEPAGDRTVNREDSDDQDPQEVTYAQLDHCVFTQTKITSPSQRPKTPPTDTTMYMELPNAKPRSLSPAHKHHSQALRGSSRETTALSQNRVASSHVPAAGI

Assays:
[1] = target: KIR2DL1; assay: flow cytometry, transduced 3T3 cells
[2] = target: KIR2DL4 expressed on 3T3 cells (human) (UniProt Q99706); assay: flow cytometry, transduced 3T3 cells
[3] = target: KIR2DL2; assay: flow cytometry, transduced 3T3 cells
[4] = target: KIR2DL3; assay: flow cytometry, transduced 3T3 cells
[5] = target: KIR3DL2; assay: flow cytometry, transduced 3T3 cells
[6] = target: KIR3DL3 expressed on 3T3 cells (human) (UniProt Q8N743); assay: flow cytometry, transduced 3T3 cells
[7] = target: KIR3DL1; assay: flow cytometry, transduced 3T3 cells
[8] = target: KIR2DL5B*003 allele expressed on 3T3 cells (human) (UniProt Q8N109); assay: flow cytometry, 3T3 cells expressing KIR2DL5 alleles, mAb 5 µg/ml
[9] = target: KIR2DL5B*003 allele expressed on 3T3 cells (human) (UniProt Q8N109); assay: flow cytometry, 5 µg/mL mAb on 3T3 cells transduced with the allele
[10] = target: KIR2DL5B*003 allele expressed on 3T3 cells (human) (UniProt Q8N109); assay: flow cytometry, transduced 3T3 cells, mAb 5 µg/mL
[11] = target: KIR2DL5B*003 allele expressed on 3T3 cells (human) (UniProt Q8N109); assay: flow cytometry, 5 µg/mL mAb on 3T3 cells expressing the allele
[12] = target: KIR2DL5-Ig fusion protein (KIR2DL5 extracellular domain fused to human IgG1 Fc) (human) (UniProt Q8N109); assay: biolayer interferometry (Octet), KIR2DL5-Ig on anti-human Fc sensors, mAb in solution
[13] = target: KIR2DL5A*005 allele expressed on 3T3 cells (human) (UniProt Q8NHK3); assay: flow cytometry, 3T3 cells expressing KIR2DL5 alleles
[14] = target: KIR2DL5 wild type (KIR2DL5A*001) expressed on cells (human) (UniProt Q8N109); assay: flow cytometry, transduced 3T3 cells, mAb 5 µg/ml
[15] = target: KIR2DL5 wild type (KIR2DL5A*001) expressed on cells (human) (UniProt Q8N109); assay: flow cytometry, 5 µg/ml mAb on transduced 3T3 cells
[16] = target: KIR2DL5 D0 variant P112S expressed on 3T3 cells (human) (UniProt Q8N109); assay: flow cytometry, 3T3 cells expressing KIR2DL5 D0 variants, mAb 5 µg/ml
[17] = target: KIR2DL5 D0 variant R52H expressed on 3T3 cells (human) (UniProt Q8N109); assay: as above
[18] = target: KIR2DL5 D0 variant G97S expressed on 3T3 cells (human) (UniProt Q8N109); assay: as above
[19] = target: KIR2DL5 D0 variant T46S expressed on 3T3 cells (human) (UniProt Q8N109); assay: as above
[20] = target: KIR2DL5 wild type (KIR2DL5A*001) expressed on cells (human) (UniProt Q8N109); assay: high-throughput flow cytometry (hybridoma selection)
[21] = target: KIR2DL5 wild type (KIR2DL5A*001) expressed on cells (human) (UniProt Q8N109); assay: flow cytometry, 3T3 cells expressing KIR2DL5 alleles, mAb 5 µg/ml
[22] = target: D2-deleted KIR2DL5 expressed on 3T3 cells (human) (UniProt Q8N109); assay: flow cytometry, transduced 3T3 cells, mAb 5 µg/ml
[23] = target: KIR2DL5A*005 allele expressed on 3T3 cells (human) (UniProt Q8NHK3); assay: flow cytometry, 3T3 cells expressing KIR2DL5 alleles, mAb 5 µg/ml

- binding [14]: binds
- binding [22]: binds
- binding [15]: binds
- binding [16]: binds
- binding [17]: binds
- binding [18]: binds
- binding [19]: binds
- binding [1]: no binding (tested: 5 µg/ml)
- binding [2]: no binding (tested: 5 µg/ml)
- binding [3]: no binding (tested: 5 µg/ml)
- binding [4]: no binding (tested: 5 µg/ml)
- binding [5]: no binding (tested: 5 µg/ml)
- binding [6]: no binding (tested: 5 µg/ml)
- binding [7]: no binding (tested: 5 µg/ml)
- binding [20]: binds
- binding [21]: binds
- binding [8]: binds
- binding [23]: binds
B4: anti-KIR2DL5 mAb clone B11B4 (antibody, V domains shown)
VH: QVQLQQSGGELVKPGASVKMSCKAFGYTFTSFPIEWMKQNHGKSLEWIGNFHPYNDDTKYNEKFNGKAKLTAETSSKTVYLELSRLTSDDCSVYYCARGSDYSFGLDYWGQGTSVTVSS
VL: GIVLTQSPASLVVSLGQRATISCRASESVDSYGYSFMHWYQQKPGQPPKLLIYRASNLKSGIPARFSGSGCRTDFTLTINPVEADDVATYYCQQSNEDPWTFGGGTKAGN

- binding [1]: no binding (tested: 5 µg/ml)
- binding [2]: no binding (tested: 5 µg/ml)
- binding [3]: no binding (tested: 5 µg/ml)
- binding [4]: no binding (tested: 5 µg/ml)
- binding [5]: no binding (tested: 5 µg/ml)
- binding [6]: no binding (tested: 5 µg/ml)
- binding [7]: no binding (tested: 5 µg/ml)
- binding [8]: binds
B5: anti-KIR2DL5 mAb clone B33C12 (antibody, V domains shown)
VH: B4 VH with G9A, Y54S, C91S, S92A, G105A
VL: GIVLTQSPASLAVSLGQRATISCRASESVDSYGYSFMHWYQQKPGQPPKLLIYRASNLKSGIPARFSGSGSRTDFTLTINPVEADDVATYYCQQSNEDPWTFGGGTKLEIK

More lines, now with the values behind:

B1: anti-KIR2DL5 mAb clone B2A18 (antibody, V domains shown)
VH: QIQLVQSGPEVKKPGETVKISCKASGYTFTKYGMNWVKQAPGKGLKWMGWINTNTGESTYAEDFKGRFAFSLETSANTAFLQINNLKNEDTAAYFCARWGPYGSSLYYGMDYWGQGTSVTVS
VL: DIQMTQSSSSFSISLGDRVTITCRASEDLYNRLAWYQQKPGNAPRLLISGATSLETGVPSRFSGSGSGKDFTLSIPSVQTEDVGTYYCQQYRYTPWTFGGGTTLN
- binding [1]: no binding (tested: 5 µg/ml)
- binding [2]: no binding (tested: 5 µg/ml)
- binding [3]: no binding (tested: 5 µg/ml)
- binding [4]: no binding (tested: 5 µg/ml)
- binding [5]: no binding (tested: 5 µg/ml)
- binding [6]: no binding (tested: 5 µg/ml)
- binding [7]: no binding (tested: 5 µg/ml)
- binding [8]: binds

B2: anti-KIR2DL5 mAb clone F8B30 (antibody, V domains shown)
VH: QIQLVQSGPELKKPGETVKISCKASGYTFTDYSMHWVKQAPGKGLKWMGWINTETGGPTYADDFKGRFAFSLETSATTAYLQINNLKNEDTATYFCSRDVDLYFDYWGQGTTLTVS
VL: DIQMTQSPASLSASVGETVTITCRTSENIYSYLAWYQQKQGKSPQLLVYNAKTLVEGVPSRFSGSGSGTQFSVKINSLQPEDFGNYYCQHHYGIPFTFGGGTKLEIK
- binding [9]: binds
- binding [10]: binds
- binding [11]: binds
- binding [1]: no binding (tested: 5 µg/mL)
- binding [2]: no binding (tested: 5 µg/mL)
- binding [3]: no binding (tested: 5 µg/mL)
- binding [4]: no binding (tested: 5 µg/mL)
- binding [5]: no binding (tested: 5 µg/mL)
- binding [6]: no binding (tested: 5 µg/mL)
- binding [7]: no binding (tested: 5 µg/mL)
- binding [12]: binds

B3: anti-KIR2DL5 mAb clone B7B23 (antibody, V domains shown)
VH: QVQLQQSGAELVRPGVSVKISCKGSGYTFTDYTMHWVKQSHAKSLEWIGVISPYYGDASYNQKFKGKATMTVDKSSSTAYMELARLTSEDSAIYYCARGLLRGFAYWGQGTLVTVS
VL: DIVMTQSPSSKDMSVGQKVTMRCKSSKSLLNSSNQKKYLAWYQQKPGQSPKLLVYFASIRESGVPDRFIGSGSGTDFTLTISSVQVEDLADYFCQQHYSTPWTFGGG
- binding [13]: no binding (tested: 5 µg/ml)
- binding [14]: binds
- binding [15]: binds
- binding [16]: binds
- binding [17]: binds
- binding [18]: binds
- binding [19]: binds
- binding [1]: no binding (tested: 5 µg/ml)
- binding [2]: no binding (tested: 5 µg/ml)
- binding [3]: no binding (tested: 5 µg/ml)
- binding [4]: no binding (tested: 5 µg/ml)
- binding [5]: no binding (tested: 5 µg/ml)
- binding [6]: no binding (tested: 5 µg/ml)
- binding [7]: no binding (tested: 5 µg/ml)
- binding [20]: binds
- binding [21]: binds
- binding [8]: binds
